Further values from the same series stand in other lists.
Test: Tissue distribution by quantitative whole-body autoradiography (QWBA)
Type: in vivo, male Sprague Dawley and Long-Evans rats
Settings: 15 mg/kg IV
Description: The study utilized 4 groups of male SD rats (albino), and 3 groups of male LE rats (pigmented); a total of 39 rats. All animals were obtained from Hilltop Lab Animals, Inc. (Scottdale, Pa.). […] Rats in Group 5 were administered a single 2-h IV infusion of [^14C]brincidofovir at a target dose of 2 mg/kg. […] Three dosing formulations (one for high dose IV, one for low dose IV, and one for PO dose) were prepared at QPS on the day of dosing. The IV formulation for Groups 1, 2, 3, and 4 contained a vehicle of 10 mM sodium phosphate buffer in 5% dextrose solution at pH 8.0(±0.1).
Each animal, at their respective termination time points, was euthanized for QWBA analysis immediately after blood collection. One rat per time point per Group was euthanized as listed below.
The blood samples were maintained on wet ice (approximately 4° C.) and then centrifuged to obtain plasma within 1 h of the blood collection time. Centrifuge settings were recorded in the study notebook. Duplicate aliquots of plasma (0.050 mL) were analyzed for radioactivity using direct counting by LSC, and residual plasma was stored at approximately −70° C. and was saved for possible future analysis under a separate study protocol. Residual red blood cells were discarded as radioactive waste.
The pinna, distal limbs, hair, and tail were removed from each frozen carcass and each frozen carcass was embedded in an aqueous suspension of approximately 2% (w/v) carboxymethylcellulose and frozen into a block. The blocks were stored at approximately −20° C. prior to sectioning. Each blocked carcass was mounted on the object stage of a cryomicrotome (Leica CM3600 Cryomacrocut, Nussloch, Germany and Vibratome 9800, St. Louis, Mo.) maintained at approximately −20° C. and internal standards (3), which were plasma fortified with [^14C]-glucose at one concentration (approximately 0.05 μCi/mL), were placed into the frozen blocks, prior to sectioning, and were used for section thickness quality control. A number of whole-body sections (approximately 40 μm thick) were taken in the sagittal plane at various levels of interest using a whole-body cryomicrotome set at −20° C. Sagittal sections (20-50 μm thick) of frozen carcasses were exposed to phosphor imaging plates. Regions of images in tissues were converted to concentrations using standards. All of the major tissues, organs, and biological fluids were represented.
Tissue concentration data was determined for the following tissues and/or contents: adipose (brown and white), adrenal gland, bile (in duct), blood (cardiac), bone, bone marrow, brain (cerebrum, cerebellum, medulla), cecum (and contents), large intestine (and contents), epididymis, esophagus, eye (uvea and lens), Harderian gland, heart, kidney (cortex and medulla), liver, lung, lymph node, pancreas, pituitary gland, prostate gland, salivary gland, seminal vesicles, skeletal muscle, skin (pigmented and non-pigmented), small intestine (and contents), stomach (gastric mucosa and contents), spleen, spinal cord, testis, thymus, thyroid, and urinary bladder (and contents).
The imaging plate and sections were placed in light-tight exposure cassettes, in a copper-lined lead safe, for a 4-day exposure at room temperature. […] Quantification was performed by image densitometry using MCD image analysis software (v. 7.0, Interfocus Imaging Ltd) and a standard curve constructed from the integrated response [i.e., Molecular Dynamics Counts per square millimeter (MDC/mm^2)] and the nominal concentrations of the ^14C-calibration standards. The concentrations of radioactivity were expressed as the μg equivalents of [^14C]brincidofovir per gram sample (μg equiv/g). A lower limit of quantification (LLOQ) was applied to the data (See section 6.7.4).
Tissue concentrations that fell below the LLOQ were identified as being below the quantification limit (BQL). Tissue areas that were not visualized on autoradiographic images were identified as no sample (NS) and reported as BQL.

SMILES: CCCCCCCCCCCCCCCCOCCCOP(=O)(O)CO[C@H](CO)Cn1ccc(N)nc1=O [[^14C]brincidofovir]
- Concentration of radioactivity (Liver, 24 h, LE rat): 13.918 μg equiv/g tissue
- Concentration of radioactivity (Liver, 72 h, LE rat): 3.261 μg equiv/g tissue
- Concentration of radioactivity (Liver, 96 h, LE rat): 1.269 μg equiv/g tissue
- Concentration of radioactivity (Liver, 168 h, LE rat): 0.451 μg equiv/g tissue
- Concentration of radioactivity (Liver, 840 h, LE rat): BQL (BQL = Value is below the LLOQ)
- Concentration of radioactivity (Lung, 1 h, LE rat): 3.063 μg equiv/g tissue
- Concentration of radioactivity (Lung, 2 h, LE rat): 6.350 μg equiv/g tissue
- Concentration of radioactivity (Lung, 4 h, LE rat): 3.690 μg equiv/g tissue
- Concentration of radioactivity (Lung, 8 h, LE rat): 2.233 μg equiv/g tissue
- Concentration of radioactivity (Lung, 24 h, LE rat): 0.585 μg equiv/g tissue
- Concentration of radioactivity (Lung, 72 h, LE rat): 0.886 μg equiv/g tissue
- Concentration of radioactivity (Lung, 96 h, LE rat): 0.362 μg equiv/g tissue
- Concentration of radioactivity (Lung, 168 h, LE rat): 0.178 μg equiv/g tissue
- Concentration of radioactivity (Lung, 840 h, LE rat): BQL (BQL = Value is below the LLOQ)
- Concentration of radioactivity (Lymph Node, 1 h, LE rat): 1.682 μg equiv/g tissue
- Concentration of radioactivity (Lymph Node, 2 h, LE rat): 4.002 μg equiv/g tissue
- Concentration of radioactivity (Lymph Node, 4 h, LE rat): 2.244 μg equiv/g tissue
- Concentration of radioactivity (Lymph Node, 8 h, LE rat): 1.936 μg equiv/g tissue
- Concentration of radioactivity (Lymph Node, 24 h, LE rat): 0.745 μg equiv/g tissue
- Concentration of radioactivity (Lymph Node, 72 h, LE rat): 0.710 μg equiv/g tissue
- Concentration of radioactivity (Lymph Node, 96 h, LE rat): 0.270 μg equiv/g tissue
- Concentration of radioactivity (Lymph Node, 168 h, LE rat): 0.247 μg equiv/g tissue
- Concentration of radioactivity (Lymph Node, 840 h, LE rat): 0.062 μg equiv/g tissue
- Concentration of radioactivity (Pancreas, 1 h, LE rat): 0.864 μg equiv/g tissue
- Concentration of radioactivity (Pancreas, 2 h, LE rat): 1.896 μg equiv/g tissue
- Concentration of radioactivity (Pancreas, 4 h, LE rat): 1.051 μg equiv/g tissue
- Concentration of radioactivity (Pancreas, 8 h, LE rat): 0.834 μg equiv/g tissue
- Concentration of radioactivity (Pancreas, 24 h, LE rat): 0.315 μg equiv/g tissue
- Concentration of radioactivity (Pancreas, 72 h, LE rat): 0.194 μg equiv/g tissue
- Concentration of radioactivity (Pancreas, 96 h, LE rat): 0.082 μg equiv/g tissue
- Concentration of radioactivity (Pancreas, 168 h, LE rat): BQL (BQL = Value is below the LLOQ)
- Concentration of radioactivity (Pancreas, 840 h, LE rat): BQL (BQL = Value is below the LLOQ)
- Concentration of radioactivity (Pituitary Gland, 1 h, LE rat): 2.397 μg equiv/g tissue
- Concentration of radioactivity (Pituitary Gland, 2 h, LE rat): 6.343 μg equiv/g tissue
- Concentration of radioactivity (Pituitary Gland, 4 h, LE rat): 4.081 μg equiv/g tissue
- Concentration of radioactivity (Pituitary Gland, 8 h, LE rat): 1.089 μg equiv/g tissue
- Concentration of radioactivity (Pituitary Gland, 24 h, LE rat): 0.431 μg equiv/g tissue
- Concentration of radioactivity (Pituitary Gland, 72 h, LE rat): 0.603 μg equiv/g tissue
- Concentration of radioactivity (Pituitary Gland, 96 h, LE rat): 0.297 μg equiv/g tissue
- Concentration of radioactivity (Pituitary Gland, 168 h, LE rat): 0.189 μg equiv/g tissue
- Concentration of radioactivity (Pituitary Gland, 840 h, LE rat): BQL (BQL = Value is below the LLOQ)
- Concentration of radioactivity (Plasma (by LSC), 1 h, LE rat): 2.754 μg equiv/g tissue
- Concentration of radioactivity (Plasma (by LSC), 2 h, LE rat): 4.918 μg equiv/g tissue
- Concentration of radioactivity (Plasma (by LSC), 2 h, SD rat): 7.130 μg equiv./g
- Concentration of radioactivity (Plasma (by LSC), 4 h, LE rat): 3.080 μg equiv/g tissue
- Concentration of radioactivity (Plasma (by LSC), 8 h, LE rat): 1.207 μg equiv/g tissue
- Concentration of radioactivity (Plasma (by LSC), 24 h, LE rat): 0.154 μg equiv/g tissue
- Concentration of radioactivity (Plasma (by LSC), 24 h, SD rat): 0.251 μg equiv./g
- Concentration of radioactivity (Plasma (by LSC), 72 h, LE rat): 0.017 μg equiv/g tissue
- Concentration of radioactivity (Plasma (by LSC), 96 h, LE rat): BQL (BQL = Value is below the LLOQ)
- Concentration of radioactivity (Plasma (by LSC), 168 h, LE rat): BQL (BQL = Value is below the LLOQ)
- Concentration of radioactivity (Plasma (by LSC), 168 h, SD rat): BQL (BQL = Value is below the LLOQ)
- Concentration of radioactivity (Plasma (by LSC), 840 h, LE rat): BQL (BQL = Value is below the LLOQ)
- Concentration of radioactivity (Prostate Gland, 1 h, LE rat): 0.561 μg equiv/g tissue
- Concentration of radioactivity (Prostate Gland, 2 h, LE rat): 0.901 μg equiv/g tissue
- Concentration of radioactivity (Prostate Gland, 4 h, LE rat): 0.715 μg equiv/g tissue
- Concentration of radioactivity (Prostate Gland, 8 h, LE rat): 0.542 μg equiv/g tissue
- Concentration of radioactivity (Prostate Gland, 24 h, LE rat): 0.157 μg equiv/g tissue
- Concentration of radioactivity (Prostate Gland, 72 h, LE rat): 0.104 μg equiv/g tissue
- Concentration of radioactivity (Prostate Gland, 96 h, LE rat): 0.127 μg equiv/g tissue
- Concentration of radioactivity (Prostate Gland, 168 h, LE rat): BQL (BQL = Value is below the LLOQ)
- Concentration of radioactivity (Prostate Gland, 840 h, LE rat): BQL (BQL = Value is below the LLOQ)
- Concentration of radioactivity (Salivary Gland, 1 h, LE rat): 1.335 μg equiv/g tissue
- Concentration of radioactivity (Salivary Gland, 2 h, LE rat): 2.508 μg equiv/g tissue
- Concentration of radioactivity (Salivary Gland, 4 h, LE rat): 1.153 μg equiv/g tissue
- Concentration of radioactivity (Salivary Gland, 8 h, LE rat): 0.821 μg equiv/g tissue
- Concentration of radioactivity (Salivary Gland, 24 h, LE rat): 0.314 μg equiv/g tissue
- Concentration of radioactivity (Salivary Gland, 72 h, LE rat): 0.190 μg equiv/g tissue
- Concentration of radioactivity (Salivary Gland, 96 h, LE rat): 0.134 μg equiv/g tissue
- Concentration of radioactivity (Salivary Gland, 168 h, LE rat): 0.056 μg equiv/g tissue
- Concentration of radioactivity (Salivary Gland, 840 h, LE rat): BQL (BQL = Value is below the LLOQ)
- Concentration of radioactivity (Seminal Vesicles, 1 h, LE rat): 0.938 μg equiv/g tissue
- Concentration of radioactivity (Seminal Vesicles, 2 h, LE rat): 1.834 μg equiv/g tissue
- Concentration of radioactivity (Seminal Vesicles, 4 h, LE rat): 2.285 μg equiv/g tissue
- Concentration of radioactivity (Seminal Vesicles, 8 h, LE rat): 1.717 μg equiv/g tissue
- Concentration of radioactivity (Seminal Vesicles, 24 h, LE rat): 1.127 μg equiv/g tissue
- Concentration of radioactivity (Seminal Vesicles, 72 h, LE rat): 1.374 μg equiv/g tissue
- Concentration of radioactivity (Seminal Vesicles, 96 h, LE rat): 1.038 μg equiv/g tissue
- Concentration of radioactivity (Seminal Vesicles, 168 h, LE rat): 0.361 μg equiv/g tissue
- Concentration of radioactivity (Seminal Vesicles, 840 h, LE rat): BQL (BQL = Value is below the LLOQ)
- Concentration of radioactivity (Skeletal Muscle, 1 h, LE rat): 0.427 μg equiv/g tissue
- Concentration of radioactivity (Skeletal Muscle, 2 h, LE rat): 0.611 μg equiv/g tissue
- Concentration of radioactivity (Skeletal Muscle, 4 h, LE rat): 0.343 μg equiv/g tissue
- Concentration of radioactivity (Skeletal Muscle, 8 h, LE rat): 0.152 μg equiv/g tissue
- Concentration of radioactivity (Skeletal Muscle, 24 h, LE rat): 0.063 μg equiv/g tissue
- Concentration of radioactivity (Skeletal Muscle, 72 h, LE rat): 0.070 μg equiv/g tissue
- Concentration of radioactivity (Skeletal Muscle, 96 h, LE rat): 0.040 μg equiv/g tissue
- Concentration of radioactivity (Skeletal Muscle, 168 h, LE rat): BQL (BQL = Value is below the LLOQ)
- Concentration of radioactivity (Skeletal Muscle, 840 h, LE rat): BQL (BQL = Value is below the LLOQ)
- Concentration of radioactivity (Skin (non-pigmented), 1 h, LE rat): 0.979 μg equiv/g tissue
- Concentration of radioactivity (Skin (non-pigmented), 2 h, LE rat): 2.556 μg equiv/g tissue
- Concentration of radioactivity (Skin (non-pigmented), 4 h, LE rat): 1.925 μg equiv/g tissue
- Concentration of radioactivity (Skin (non-pigmented), 8 h, LE rat): 1.273 μg equiv/g tissue
- Concentration of radioactivity (Skin (non-pigmented), 24 h, LE rat): 0.312 μg equiv/g tissue
- Concentration of radioactivity (Skin (non-pigmented), 72 h, LE rat): 0.443 μg equiv/g tissue
- Concentration of radioactivity (Skin (non-pigmented), 96 h, LE rat): 0.269 μg equiv/g tissue
- Concentration of radioactivity (Skin (non-pigmented), 168 h, LE rat): 0.226 μg equiv/g tissue
- Concentration of radioactivity (Skin (non-pigmented), 840 h, LE rat): BQL (BQL = Value is below the LLOQ)
- Concentration of radioactivity (Skin (pigmented), 1 h, LE rat): 1.193 μg equiv/g tissue
- Concentration of radioactivity (Skin (pigmented), 2 h, LE rat): 2.848 μg equiv/g tissue
- Concentration of radioactivity (Skin (pigmented), 4 h, LE rat): 2.118 μg equiv/g tissue
- Concentration of radioactivity (Skin (pigmented), 8 h, LE rat): 1.233 μg equiv/g tissue
- Concentration of radioactivity (Skin (pigmented), 24 h, LE rat): 0.491 μg equiv/g tissue
- Concentration of radioactivity (Skin (pigmented), 72 h, LE rat): 0.337 μg equiv/g tissue
- Concentration of radioactivity (Skin (pigmented), 96 h, LE rat): 0.209 μg equiv/g tissue
- Concentration of radioactivity (Skin (pigmented), 168 h, LE rat): 0.090 μg equiv/g tissue
- Concentration of radioactivity (Skin (pigmented), 840 h, LE rat): BQL (BQL = Value is below the LLOQ)
- Concentration of radioactivity (Small Intestine (contents), 1 h, LE rat): 50.503 μg equiv/g tissue
- Concentration of radioactivity (Small Intestine (contents), 2 h, LE rat): 422.957 μg equiv/g tissue

— US20170368082A1, “FORMULATIONS OF BRINCIDOFOVIR” (priority 2016, published 2017)
